Assay results: PubChem BioAssay AID485364 (National Center for Advancing Translational Sciences (NCATS), 2010)
The whole screen tested about 360,000 compounds, of which about 11,000 (3.1%) were called active. The inconclusive results got no clear call from the source; some entries with a clear call stand among them for comparison. Calls come from the whole dose curve; as a rule, active = well fitted inhibition curve with a large enough effect; inconclusive = small, poorly fitted or top-dose-only effect; inactive = no such curve, though single readings can be large or run the other way. Potencies of inconclusive entries are left out as doubtful fits.

The compounds below were run against Schistosoma mansoni thioredoxin glutathione reductase (TGR) (UniProt Q962Y6) (assay: qHTS Assay for the Inhibitors of Schistosoma Mansoni Peroxiredoxins). Settings: purified TGR, DTNB reduction, TNB absorbance 405 nm; activity change, negative = inhibition: at 114 µM (top of the series) unless noted.
Method in brief: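 First, TGR (20 nM dispensed) and NADPH were mixed with compound. Second, a 15 min room-temperature incubation followed. Third, further NADPH and then DTNB were added to start the reaction. Finally, TNB absorbance was monitored kinetically.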
% is set by controls: 0 for no effect and ±100 for the full control effect; potency is the fitted concentration of half-maximal effect; tags give direction and shape of the fitted curve.
Note: nearly all actives have a fitted effect of over 60% in size.

SMILES | Potency | activity change, negative = inhibition
CC(=O)Nc1ccc(/C=C/C(=O)c2ccccc2)cc1 | inconclusive [inhibitor, partial curve] | –
CCOc1ccc(C(Nc2cccnc2)c2cc(Cl)c3cccnc3c2O)cc1 (stereo not given) | active: 0.316 µM | –
COCCCn1c(CCC(=O)O)ccc1-c1ccc(F)cc1 | active: 44.7 µM | –
Cc1ccc(N=Nc2ccc(N)cc2C)c(S(N)(=O)=O)c1 | – | inactive: -23.2%
COc1ccc(/C=C/C(=O)Oc2cc(O)cc(O)c2)cc1 | – | inactive: 1.47%
Cc1occc1-c1nnc(SCC(=O)N2CCc3ccccc32)o1 | active: 25.1 µM | –
OC(C#CCN1CCCC1)(c1ccccc1)c1cccc(F)c1 (stereo not given) | inconclusive [inhibitor, partial curve] | –
NC(=O)C1=C[C@@H](c2ccc(Br)cc2)C[C@@H](OCCCCO)O1 | inconclusive [inhibitor, partial curve] | –
Oc1ccc2ccccc2c1C=Nc1ccccc1-c1nc2ccccc2[nH]1 | inconclusive [inhibitor, partial curve] | –
CCCN1C/C(=C/c2ccc3c(c2)OCO3)C(=O)/C(=C/c2ccc3c(c2)OCO3)C1 | inconclusive [inhibitor, partial curve] | –
CCOC(=O)C1CCCN(C(=O)c2ccc3c(c2)sc2nc(-c4ccc(C)cc4C)cn23)C1 (stereo not given) | inconclusive [inhibitor, partial curve, poor fit] | –
O=C(CCCN1C(=O)S/C(=C\C=C\c2ccccc2)C1=O)Nc1ccc(C(=O)O)cc1 | inconclusive [inhibitor, full curve, poor fit] | –
CC1(C)CC(=O)C(C(C2=C(O)CC(C)(C)CC2=O)c2ccco2)C(=O)C1 (stereo not given) | inconclusive [inhibitor, partial curve] | –
Cc1cc(C)c(C)c(S(=O)(=O)N2CCN(C(=O)c3ccccc3OCc3c(C)noc3C)CC2)c1C | – | inactive: -0.557%
Cc1ccc(S(=O)Cc2ccc(C(=O)N3CCN(C(=O)c4ccco4)CC3)o2)cc1 (stereo not given) | inconclusive [inhibitor, partial curve] | –
C#CCO[C@@H]1C[C@H](n2ccc(NC(=O)c3ccccc3)nc2=O)O[C@@H]1CO | inconclusive [inhibitor, partial curve] | –
N#C/C(C(=O)c1ccccc1)=C1/SC=C(N)N1c1ccccc1 | inconclusive [inhibitor, full curve] | –
CCCN1CCC(=O)N([C@H](CSc2ccc(OC)cc2)CC(C)C)CC1 | inconclusive [inhibitor, partial curve] | –
Cc1ccccc1-n1c(=O)n(Cc2ccco2)c(=O)c2[nH]cnc21 | inconclusive [inhibitor, partial curve] | –
COc1ccc(CCC(C(O)C(F)(F)F)S(=O)c2ccccc2)cc1 (stereo not given) | – | inactive: 3.42%
Nc1ccccc1Nc1c(F)c(F)nc(F)c1Cl | inconclusive [inhibitor, partial curve] | –
COc1ccc2c(c1)CCc1sc(NC(=O)c3ccc(C)cc3)nc1-2 | – | inactive: -7.52%
Cc1ccc(SCC(=O)NCc2ccco2)cc1 | inconclusive [inhibitor, partial curve] | –

SMILES | Potency | activity change, negative = inhibition
Cc1cc(OCC(=O)N2CCC(C(=O)O)CC2)c2c(C)cc(=O)oc2c1 | – | inactive: 7.1%
CCCOc1ccc(N2C(=O)CC(N3CC=C(c4ccccc4)CC3)C2=O)cc1 (stereo not given) | active: 28.2 µM | –
COC(=O)CSc1ncnc2c1cnn2Cc1ccccc1 | inconclusive [inhibitor, partial curve] | –
O=C(NCc1ccccc1)C1Cc2ccccc2CN1C(=O)c1ccco1 (stereo not given) | active: 35.5 µM | –
Nc1c(Br)cc([N+](=O)[O-])cc1[N+](=O)[O-] | inconclusive [inhibitor, single point] | –
CCOC(=O)/C=C1\CN(Cc2cc(OC)c(OC)c(OC)c2)S(=O)(=O)c2ccc(C(F)(F)F)cc21 | active: 28.2 µM | –
Cc1cccnc1NC(=S)NCc1ccco1 | inconclusive [inhibitor, full curve, poor fit] | –
COc1cc2ccccc2cc1C(=O)NC(=S)Nc1cc(C(=O)O)ccc1C | inconclusive [inhibitor, partial curve] | –
CCOc1cccc2sc(N3CCN(C(=O)C(C)(C)C)CC3)nc12 | – | inactive: -12.5%
COc1ccccc1N1CCN(C(=O)c2ccc(CS(=O)(=O)c3ccccc3OC)o2)CC1 | active: 28.2 µM | –
CCn1c(=O)cc(SCC(=O)NCCN2CCN(Cc3ccccc3)CC2)c2ccccc21 | inconclusive [inhibitor, partial curve] | –
Cc1ccc(C2=NCCn3c2c2ccc([N+](=O)[O-])cc2[n+]3[O-])cc1 | inconclusive [inhibitor, partial curve] | –
COc1ccc(NCc2nnc(SCC(=O)c3ccc(OC)cc3)n2C)cc1 | inconclusive [inhibitor, partial curve] | –
CSc1ccccc1OCc1cc(C(=O)N(C)C2CCCc3ccccc32)no1 (stereo not given) | inconclusive [inhibitor, partial curve] | –
Cc1nnsc1S(=O)c1ccc(Br)cc1 (stereo not given) | – | inactive: -30.6%
O=C(COc1ccc([N+](=O)[O-])cc1)N1CCC(c2nc3ccccc3s2)CC1 | inconclusive [inhibitor, single point] | –
O=C(Cn1cnc2c(oc3nc4c(cc32)CCCC4)c1=O)Nc1ccccc1 | – | inactive: -3.22%
CC(C)(Oc1ccc(Cl)cc1)C(=O)NCc1ccco1 | active: 7.08 µM | –
Fc1cccc(Cl)c1CNc1ccc(N2CCCC2)cc1 | inconclusive [inhibitor, partial curve] | –
CC1C(=O)N2CCCc3cc(S(=O)(=O)N(C)c4ccccc4)cc1c32 (stereo not given) | inconclusive [inhibitor, full curve] | –
Cc1nc2ccn(Cc3ccco3)c(=O)c2cc1C(=O)Nc1ccc(F)cc1 | inconclusive [inhibitor, full curve, poor fit] | –
CC(C(=O)NCC1CCCCC1)N(C)Cc1cccc(Cl)c1 (stereo not given) | inconclusive [inhibitor, partial curve] | –
